# Results as given in the supplement of paper PMC11417369.
# ± gives the standard deviation of the averaged measurements. The list shows a part of the results.
# Tested on: PfAP2-G AP2 domain (GST-tagged)
# Assay: gcPBM binding intensity (ln(normalized median fluorescence intensity)); higher = stronger DNA binding
# Procedure, shortened: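 Binding intensity values are the highest Masliner-normalised natural-log median intensity among replicate spots of either probe orientation. The binding step lasted 1 h in 1× PBS with 1% milk, 0.2 mg/ml BSA, 0.5% salmon testes DNA and 0.03% Triton X-100, using GST-tagged P. falciparum DNA-binding domains expressed in E. coli on an Agilent 4 × 180k array of primer-extended double-stranded 36-bp intergenic genomic probes plus negative controls. Alexa488 anti-GST antibody and a 488 nm scan detected bound protein.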
row,Sequence,gcPBM binding intensity (ln)
1,TAATGTTACACAAACTTTTCATTCTTTTTAATAAAT [TGCATGCA_negctrl_site331],10.1 ± 0.16
2,ATATAATTATAAAATAAACACACATATATATTTATA [CACACA_site8039],9.725 ± 0.078
3,TATACACCCAGACACACACACACACCCAAAAAAAAA [CACACA_site497],10.4 ± 0.51
4,TGTTGTTGTAATTATTGTACGTTATGCGATTATTAT [XGTACX_site7005],11.2 ± 0.83
5,AACATTTTAAATTATACACACATTTTGAATATATAT [CACACA_site3470],9.93 ± 0.11
6,AAAATATGTAGCTACACACACATAAACAAAATAACA [CACACA_site1007],10.2 ± 0.21
7,GATATATTTTATATATGTACATACAAGGGTAAATAT [XGTACX_site1202],11.2 ± 0.66
8,AAAATAAACTATAGTACACACTTATTATTATGAAAT [CACACA_site5488],11.2 ± 0.82
9,TCAATTAGACGAAAATGTACATATGTATATATTTTT [XGTACX_site5027],10.8 ± 0.54
10,AAGAAAAAATATACTTCACACATTTAATATATAATT [CACACA_site4919],9.92 ± 0.11
11,AAAAAAAAAAAAAAATGTACAAATATATACATATAT [XGTACX_site935],10.9 ± 0.68
12,AAAAAAGAATTGTGCACACACAAAAAATGTTCATAA [CACACA_site1103],10.5 ± 0.45
13,TCGATGTTGGTAGGATGTACGGTACCGGTAGTATTT [XGTACX_site4214],11.1 ± 0.71
14,ATTTTATAAAGGAAGTGTACTAATAAATTCAAATTA [XGTACX_site3922],11.2 ± 0.72
15,ATTATAAAAATATCGTGTACATATTTTTTAAAATAA [XGTACX_site5072],11.3 ± 0.83
16,AAAAAAAAAAAAAAAAGTACACATCATTTTATGAAA [XGTACX_site1402],11.7 ± 0.76
17,ATTATTTCAATTTTTTTTGTTTTTAAAAAAAAAAAT [CACACA_negctrl_site1387],10 ± 0.2
18,AAAATAAATAAATACACACACACGAATATTTATATA [CACACA_site6892],9.96 ± 0.057
19,GAAAACAAAATGGTAACACACAAATGTAAATAGTAT [CACACA_site2113],10.14 ± 0.064

row,Sequence,gcPBM binding intensity (ln)
1,AATTTCTTATTTTGTACACACAATAAATATTCACAT [CACACA_site1612],11.2 ± 0.73
2,AAAAAAAAAAAAAAAAGTACTCTATAAGTAACATTT [XGTACX_site6973],11.4 ± 0.91
3,ATTTTTTTGTTATTGTTGAAAAGATGGTTCTTTTTT [CACACA_negctrl_site1346],10 ± 0.099
4,TAGTAGTTATCATTAACATGCAATAATATTATTTAA [TGCATGCA_site178],9.635 ± 0.035
5,AAGTTAGGATAGATCCAATAATTTTTAGTTTCTCTT [GTGCAC_negctrl_site272],9.6 ± 0.39
6,ATGAACATATTTTTTTGTACTTATGAAAATATGTTA [XGTACX_site5996],11.1 ± 0.64
7,ATCATATTTATGTTGGTGCATTATACATAAAGTTTA [GTGCAC_site9574],10.1 ± 0.29
8,ATATATATATATATATGTACATAATTAATAGCATAT [XGTACX_site1428],11.2 ± 0.65
9,GAAAAAGATGCGCATACACACAGATGAATAACAAAA [CACACA_site1628],10.2 ± 0.12
10,GAAAAATATATTCTGGTGCATGAATAAAATCATAAA,10 ± 0.29
11,AATTGGATAAACCAATTGGATTATAATACGATATAT [CACACA_negctrl_site275],9.845 ± 0.021
12,AAAATAAGAAAACAAATGCACACCATTTATATAGAT [CACACA_site1055],9.925 ± 0.092
13,TATATAATAAGAAAATATGTGCGTAGTTCAGCAAAA [XGTACX_negctrl_site304],10.2 ± 0.18
14,TATTCATCACTTTTTTGTACTTATGGATAAAATTTT [XGTACX_site3349],11.2 ± 0.44
15,AAAGGATATATCCAGAGTACATATTCTGTGTAATAC [XGTACX_site1547],11.1 ± 0.64
16,ATAATTGTTTCTTTCTCCTTTTTATTTCATTTTAAA [CACACA_negctrl_site964],9.865 ± 0.092
17,CACAAAAAAAATTATACACACACACCCATATATATA [CACACA_site8255],10.1 ± 0.2
18,TGTCTTATTTATATTACACACTATATGAAAAAATAT [CACACA_site6807],10 ± 0.19
19,TAAATATAATCTAAATGTACATGACATAATTTTTTT [XGTACX_site2856],10.7 ± 0.49

row,Sequence,gcPBM binding intensity (ln)
1,GTGTAATATGAAATGTGTACACACGCACACACAAAA [XGTACX_site6180],11.7 ± 1.1
2,TAAAATATTTTTTGTAGTACCTTAATATTTTTGAAG [XGTACX_site3048],11.2 ± 0.69
3,TATATATATTATAGATGTACTTTCATATATATGTTT [XGTACX_site8189],11 ± 0.69
4,AGCCACCATATTTACACACACATCAAAATGTATTAA [CACACA_site1816],10.2 ± 0.17
5,TTTCAAAAATGAGTTACACACACACCGATATATATA [CACACA_site5263],10.14 ± 0.099
6,AATAAATACTAAATGGTGCAAAATTTTTTAACACTG,9.96 ± 0.12
7,ATGTATATTTTTAAAAGTACAGAATTTTCATATGAA [XGTACX_site5754],11.3 ± 0.93
8,ATATACAATACAAAAACACACACAAAAAAAGAAAAG [CACACA_site8668],10.2 ± 0.16
9,ATAGTATCTGGTAGCTGTACGAGTCGTAGAGTCTAA [XGTACX_site2539],11.2 ± 0.98
10,TATTTATTTATGTACGCACACAGTTGATATTAATTC [CACACA_site2754],11.6 ± 0.96
11,TATAATTATTTTTTCACACATATGTATTTATATATA [CACACA_site4205],9.975 ± 0.007
12,ATTATTTAACATGTGGACACAAAAATTTAAGGGTTC [CACACA_negctrl_site1269],11.4 ± 0.83
13,ATGATAATTATTAAGGGTACATAAAAATATATCTAT [XGTACX_site8969],11.3 ± 0.73
14,AGATATATATATAGGTGTACTGGAATGAAATTGTTT [XGTACX_site8200],11.4 ± 0.49
15,AATATATTAAATATTACACACATACATTTAGTGGAA [CACACA_site8609],9.875 ± 0.064
16,AATATCAAAAAAAAAAAAAAAAAAAAAAAAAAAAAA [CACACA_negctrl_site288],9.48 ± 0.35
17,TACTAAGAAAAGAACTGTACATAGAATATACCCAAG [XGTACX_site4757],10.9 ± 0.53
18,ATATAATAAATGTAGGTGCATAAAAATATTTTGTTA [GTGCAC_site9780],10.12 ± 0.078
